Structures are written as SMILES. Hit rate of the full screen: of about 150,000 compounds, about 540 (0.36%) showed an effect of 50% or more. Some of the results follow.

54 molecules from ChEMBL document CHEMBL4888484, “Replenishing the malaria drug discovery pipeline: Screening and hit evaluation of the MMV Hit Generation Library 1 (HGL1) against asexual blood stage Plasmodium falciparum ,using a nano luciferase reporter read-out” (2022) can be followed below.

The assay deals with Plasmodium falciparum. The experiment in a line: Primary screen in NF54 nanoGlo assay, in single point, at 2uM, 72h; a lower Z score goes with more inhibition. The assay is classed as functional, Erythrocyte. The conditions noted are these: timepoint 72 hour.
For orientation: % Inhibition means the drop in the measured response relative to a control, in per cent. In the case of `Cc1cc(C)c2ncn([C@H]3CC[C@H](N)C3)c(=O)c2c1`, the “% Inhibition” value was -13% and the Z score stood at 2.13.

Take `COC1(CC(=O)NCc2ccc(Oc3ccccc3)cn2)CCC1`: the “% Inhibition” value is reported as -12% and the Z score is 1.48.

With `CN(Cc1ccccc1)CC1CCN(Cc2nnc3n2CCCCC3)CC1`, the “% Inhibition” value turned out to be 0% and the Z score is reported as -0.05.

On to `Cc1cccc(NC(=O)N2CCN(c3cnn4c(C5CC5)nnc4c3)CC2)c1`, for which the “% Inhibition” value turned out to be 31% and the Z score is on record as -3.5.

As to `Cc1cc(N[C@@H](c2ccc(F)cc2)c2ccccc2Cl)n2ncnc2n1`, the “% Inhibition” value is recorded as -13% and the Z score amounted to 1.69.

In the case of `Cc1c(N2CCN(C(=O)c3ccccc3)CC2)c(=O)n(C)c(=O)n1C`, the “% Inhibition” value is reported as -7% and the Z score was determined as 1.12.

For the molecule `O=C(CC1CCCC1)NCc1ccc([C@@H](O)c2cccs2)s1`, the “% Inhibition” value is reported as -24% and the Z score was determined as 3.08.

Consider `O=C(c1cccc(Cn2ccnn2)c1)N1CCC[C@H](N2CCCC2)CC1`, for which the “% Inhibition” value is -6% and the Z score was found to be 1.06.

On to `Fc1ccc2nc(N3CCO[C@H](C4CCC4)C3)oc2c1`, for which the “% Inhibition” value is on record as 6% and the Z score is -0.75.

In the case of `Cc1nc2ccc(NC(=O)c3cncnc3)cn2n1`, the “% Inhibition” value was found to be 0% and the Z score is reported as -0.03.

`CCCN(CC(=O)N1CCn2cccc2[C@H]1c1cccc(F)c1)C(=O)Nc1ccccc1C`: the “% Inhibition” value is on record as -16% and the Z score is listed as 1.45.

As for `C[C@@H](C(N)=O)N1CCCn2nc(CCC(=O)NC3CC3)cc2C1`, the “% Inhibition” value is reported as -13% and the Z score is 1.67.

Consider `Cc1nc(-c2csc(S(=O)(=O)N3CCC(C(=O)N4CCC(C)CC4)CC3)c2)no1`, for which the “% Inhibition” value is on record as -15% and the Z score came to 1.7.

For `CCc1nsc(N[C@H]2CC(=O)N(CCN(C)CCOC)C2)n1`, the “% Inhibition” value is on record as 4% and the Z score is recorded as -0.6.

Take `Cc1ccc([C@@H]2COCCN2C(=O)NCCc2c(C)nn(C)c2C)o1`: the “% Inhibition” value was -9% and the Z score was determined as 0.95.

In the case of `COc1ccc(-c2noc(-c3cccnc3NCc3ccco3)n2)cc1`, the “% Inhibition” value is given as -5% and the Z score is reported as 0.81.

As to `CCOc1cc(C(=O)OC)cc(N)c1OCC`, the “% Inhibition” value is -6% and the Z score is listed as 0.67.

As for `CC(=O)c1ccc(S(=O)(=O)NC(=O)c2ccc(C#N)[nH]2)cc1`, the “% Inhibition” value is on record as -14% and the Z score amounted to 1.35.

Regarding `O=C(Cn1nc(C2CC2)n(-c2ccccc2)c1=O)NCc1ccc2c(c1)OCO2`, the “% Inhibition” value turned out to be 7% and the Z score is listed as -0.83.

As to `CC(C)CN1CC[C@H](CNC(=O)c2cc(C(C)(C)C)nc(=O)[nH]2)C1`, the “% Inhibition” value is -6% and the Z score turned out to be 1.18.

`Cc1c(C(=O)NC2CCCC2)c(C(F)(F)F)nn1C1CCN(C(C)C)CC1`: the “% Inhibition” value is given as 2% and the Z score is reported as -0.28.

On to `O=C(CN1CCN(c2ccc3c(c2)OCO3)C1=O)Nc1nc2ccccc2s1`, for which the “% Inhibition” value was -12% and the Z score is listed as 2.06.

Consider `N[C@@H](CCC(=O)N1CCCCCCC1)c1ccccc1`, for which the “% Inhibition” value came out at 29% and the Z score is listed as -3.32.

Consider `Clc1ccc(-c2nnc(C3CCC(c4ccccc4)CC3)o2)cc1` (stereo not drawn), for which the “% Inhibition” value was -2% and the Z score came to 0.3.

As for `O=C(NC[C@H](O)c1ccc2c(c1)CCO2)Nc1ccccc1C(F)(F)F`, the “% Inhibition” value is -3% and the Z score is 0.44.

As for `COc1ccc(-c2cc3n(n2)CCCN(C(=O)c2cccc(C)c2)C3)cc1OC`, the “% Inhibition” value is recorded as -6% and the Z score stood at 0.64.

In the case of `O=C(NCC#CCOc1cccc(C(F)(F)F)c1)c1ccc(=O)[nH]n1`, the “% Inhibition” value is on record as -6% and the Z score is listed as 0.91.

`CCN1CCN(C(=O)c2cc3cc(NC(=O)CC(C)(C)C)ccc3n2Cc2cccc(C)c2)CC1`: the “% Inhibition” value was found to be 8% and the Z score is recorded as -1.06.

For the molecule `NC(=O)CNc1cccc(C(F)(F)F)c1`, the “% Inhibition” value is on record as -2% and the Z score is 0.41.

Take `CN(Cc1ccccc1)c1ncc(NS(=O)(=O)c2cccc(F)c2)cc1C(=O)O`: the “% Inhibition” value was -18% and the Z score is given as 1.75.

Regarding `CCN(C(=O)CN(C)S(C)(=O)=O)c1ccccc1`, the “% Inhibition” value was 1% and the Z score was -0.26.

Take `CN(C)c1ccnc(CNC(=O)N[C@H]2CC23CCCCC3)c1`: the “% Inhibition” value is given as -5% and the Z score worked out at 0.86.

In the case of `O=C(Cn1ncn2c(cc3ccccc32)c1=O)N1CCN(c2ccccc2)CC1`, the “% Inhibition” value is listed as -15% and the Z score worked out at 1.94.

With `c1ccc2c(NC[C@H]3CCCO3)nccc2c1`, the “% Inhibition” value is 2% and the Z score is -0.34.

Turning to `CNC(=O)c1ccc(Cl)c(NC[C@]2(c3ccc(F)cc3)CCOC2)c1`, the “% Inhibition” value is given as -2% and the Z score is listed as 0.35.

Take `O[C@@H](CN1CCC(n2ccnc2)CC1)c1cccc2ccccc12`: the “% Inhibition” value is on record as -10% and the Z score amounted to 1.31.

Consider `CC(=O)Nc1ccc(S(=O)(=O)NCCc2cc(F)cc3c2OCOC3)cc1`, for which the “% Inhibition” value is recorded as -4% and the Z score was 0.59.

On to `O=C(NCc1csnn1)c1ccc(Cl)cc1`, for which the “% Inhibition” value is -13% and the Z score is on record as 2.06.

Turning to `Cc1csc(-c2cc(S(=O)(=O)NC3CCCCCCC3)c(C)n2C)n1`, the “% Inhibition” value is reported as -7% and the Z score was found to be 0.77.

In the case of `Cc1ccc(C)c(NS(=O)(=O)c2ccc3c(c2)CCN3S(C)(=O)=O)c1`, the “% Inhibition” value is recorded as -13% and the Z score was 1.89.

With `CN1CCN(C[C@@H]2CN(C(=O)c3cccc(OC(F)F)c3)C[C@@H]2CO)CC1`, the “% Inhibition” value is on record as -3% and the Z score was determined as 0.49.

`Cn1nncc1C1(O)CN(c2ncnc3[nH]ccc23)C1`: the “% Inhibition” value is recorded as -3% and the Z score was 0.53.

On to `CN([C@H]1CC(=O)N(Cc2ccccc2)C1=O)S(=O)(=O)c1cccnc1`, for which the “% Inhibition” value is reported as -11% and the Z score is 1.67.

Take `CC(=O)c1cccc(NC(=O)CC2CCN(S(=O)(=O)c3ccc4c(c3)CCN4C(C)=O)CC2)c1`: the “% Inhibition” value is listed as 5% and the Z score is on record as -0.46.

Regarding `O=C(Cn1nnc2ccccc2c1=O)N1CCC(c2nc3ccccc3o2)CC1`, the “% Inhibition” value is recorded as -5% and the Z score was 0.89.

Take `O=c1[nH]nc(C2CC=CC2)n1C[C@H]1CCCO1`: the “% Inhibition” value is listed as -11% and the Z score is 1.66.

Turning to `COc1ccc2c(c1)N(S(=O)(=O)c1ccc(C)cc1)CCCC2=O`, the “% Inhibition” value is -19% and the Z score came to 2.23.

In the case of `Cc1cc(C)c(C(=O)O)cc1NC(=O)c1oc(C2CC2)nc1C`, the “% Inhibition” value was determined as 25% and the Z score is reported as -4.95.

`N#Cc1c(N2CCOCC2)ncnc1N1CCN(c2cccc(C(F)(F)F)c2)CC1`: the “% Inhibition” value is -19% and the Z score turned out to be 1.92.

Turning to `C=CCn1c(C2CCCC2)nn(C)c1=O`, the “% Inhibition” value is -6% and the Z score stood at 0.93.

Turning to `Cn1c(N2CC3CC2(C)C3)cc(=O)n(C)c1=O`, the “% Inhibition” value is reported as -13% and the Z score is recorded as 1.2.

For `CC1CN(CCNc2ncccc2C(=O)O)C(C)CO1` (stereo not drawn), the “% Inhibition” value is on record as -8% and the Z score is 0.76.

Consider `COc1ccc(-c2cnn(CCO)c2)c(OC)n1`, for which the “% Inhibition” value is given as -1% and the Z score turned out to be 0.23.

For the molecule `CC[C@H]1CN(C(=O)c2cnn(-c3ccccc3)n2)CCO1`, the “% Inhibition” value was -4% and the Z score was 0.62.
